Results from the supplement of paper PMC11741623.
Some of the results follow. Interaction screen of human proteins with wild-type SARS-CoV-2 proteins by split-DHFR complementation in yeast, 1 µg/mL methotrexate. Value = fitness of the pair (three or more lineages) minus that of the viral protein without a human partner, on a scale set by negative (0) and fused positive (1) controls, mean of up to three cultures; higher = more likely to interact. Active = false discovery rate below 0.05 (one-sided t-test) in at least one culture. Nearly all pairs are not hits, and differences among them are mostly noise (correlation between cultures about 0.3); most hits were seen in one culture only. Human sequences are the Swiss-Prot entries looked up by gene name; the clone may be another isoform. NSP2 values were corrected by the authors for a growth advantage. Listed are human proteins with a hit and a random twelfth of the others.

B1: BFAR, Q9NZS9 (protein)
chain: MEEPQKSYVNTMDLERDEPLKSTGPQISVSEFSCHCCYDILVNPTTLNCGHSFCRHCLALWWASSKKTECPECREKWEGFPKVSILLRDAIEKLFPDAIRLRFEDIQQNNDIVQSLAAFQKYGNDQIPLAPNTGRANQQMGGGFFSGVLTALTGVAVVLLVYHWSSRESEHDLLVHKAVAKWTAEEVVLWLEQLGPWASLYRERFLSERVNGRLLLTLTEEEFSKTPYTIENSSHRRAILMELERVKALGVKPPQNLWEYKAVNPGRSLFLLYALKSSPRLSLLYLYLFDYTDTFLPFIHTICPLQEDSSGEDIVTKLLDLKEPTWKQWREFLVKYSFLPYQLIAEFAWDWLEVHYWTSRFLIINAMLLSVLELFSFWRIWSRSELKTVPQRMWSHFWKVSTQGLFVAMFWPLIPQFVCNCLFYWALYFNPIINIDLVVKELRRLETQVL
B2: CDCA7L, Q96GN5 (protein)
chain: MELATRYQIPKEVADIFNAPSDDEEFVGFRDDVPMETLSSEESCDSFDSLESGKQQDVRFHSKYFTEELRRIFIEDTDSETEDFAGFTQSDLNGKTNPEVMVVESDLSDDGKASLVSEEEEDEEEDKATPRRSRSRRSSIGLRVAFQFPTKKLANKPDKNSSSEQLFSSARLQNEKKTILERKKDCRQVIQREDSTSESEDDSRDESQESSDALLKRTMNIKENKAMLAQLLAELNSMPDFFPVRTPTSASRKKTVRRAFSEGQITRRMNPTRSARPPEKFALENFTVSAAKFAEEFYSFRRRKTIGGKCREYRRRHRISSFRPVEDITEEDLENVAITVRDKIYDKVLGNTCHQCRQKTIDTKTVCRNQGCCGVRGQFCGPCLRNRYGEDVRSALLDPDWVCPPCRGICNCSYCRKRDGRCATGILIHLAKFYGYDNVKEYLESLQKELVEDN

The binders below were run against SARS-CoV-2 E (assay: yeast fitness gain over the viral ORF with no human partner (scaled fitness); higher = more likely to interact).
Protocol: (§1)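 Split mouse DHFR complementation in pooled diploid yeast: human ORFeome clones carry one fragment and viral ORFs the other; barcoded lineages compete in 1 µg/mL methotrexate and fitness is read by barcode sequencing in up to three cultures.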
B1 was tested, and the yeast fitness gain was inactive: -0.00203. In the case of B2, the yeast fitness gain is reported as inactive: 0.00307.

The binders below were run against SARS-CoV-2 M in the same assay as above.
Protocol: as §1
B1 was tested, and the yeast fitness gain was inactive: 0.257. B2 was tested, and the yeast fitness gain was inactive: 0.0876.

These binders were tested against SARS-CoV-2 NSP10 in the same assay as above.
Protocol: as §1
In the case of B1, the yeast fitness gain is reported as inactive: -0.0128. B2 was tested, and the yeast fitness gain was inactive: -0.0261.

The binders below were run against SARS-CoV-2 NSP12 in the same assay as above.
Protocol: as §1
B1 was tested, and the yeast fitness gain was inactive: -0.144. B2 was tested, and the yeast fitness gain was inactive: 0.00417.

Each binder was assayed against SARS-CoV-2 NSP13 in the same assay as above.
Protocol: as §1
With B1 the yeast fitness gain was inactive: 0.0276. With B2 the yeast fitness gain was inactive: -0.342.

Each binder was assayed against SARS-CoV-2 NSP15 in the same assay as above.
Protocol: as §1
In the case of B1, the yeast fitness gain is reported as inactive: -0.0761.

What follows are binders tested against SARS-CoV-2 NSP16 in the same assay as above.
Protocol: as §1
In the case of B1, the yeast fitness gain is reported as inactive: -0.0451.

These binders were tested against SARS-CoV-2 NSP2 in the same assay as above.
Protocol: as §1
B1 was tested, and the yeast fitness gain was inactive: -0.19. B2 was tested, and the yeast fitness gain was inactive: -0.335.

What follows are binders tested against SARS-CoV-2 NSP4 in the same assay as above.
Protocol: as §1
B1 was tested, and the yeast fitness gain was inactive: -0.0985.

Each binder was assayed against SARS-CoV-2 NSP5 in the same assay as above.
Protocol: as §1
In the case of B1, the yeast fitness gain is reported as inactive: -0.125. With B2 the yeast fitness gain was inactive: -0.213.

The binders below were run against SARS-CoV-2 NSP6 in the same assay as above.
Protocol: as §1
In the case of B1, the yeast fitness gain is reported as inactive: -0.252. B2 was tested, and the yeast fitness gain was inactive: -0.0182.

These binders were tested against SARS-CoV-2 NSP7 in the same assay as above.
Protocol: as §1
In the case of B1, the yeast fitness gain is reported as inactive: -0.0503.

The binders below were run against SARS-CoV-2 NSP8 in the same assay as above.
Protocol: as §1
In the case of B1, the yeast fitness gain is reported as inactive: 0.0481. With B2 the yeast fitness gain was inactive: 0.0387.

These binders were tested against SARS-CoV-2 ORF10 in the same assay as above.
Protocol: as §1
For B1, the yeast fitness gain was inactive: 0.0631. For B2, the yeast fitness gain was inactive: 0.0494.

The binders below were run against SARS-CoV-2 ORF3A in the same assay as above.
Protocol: as §1
With B1 the yeast fitness gain was inactive: -0.0371.

The binders below were run against SARS-CoV-2 ORF3B in the same assay as above.
Protocol: as §1
With B1 the yeast fitness gain was inactive: 0.0319. In the case of B2, the yeast fitness gain is reported as inactive: -0.00485.

The binders below were run against SARS-CoV-2 ORF6 in the same assay as above.
Protocol: as §1
B1 was tested, and the yeast fitness gain was inactive: 0.0698. B2 was tested, and the yeast fitness gain was inactive: -0.0527.

What follows are binders tested against SARS-CoV-2 ORF7A in the same assay as above.
Protocol: as §1
For B1, the yeast fitness gain was inactive: -0.086. B2 was tested, and the yeast fitness gain was inactive: 0.0442.

These binders were tested against SARS-CoV-2 ORF7B in the same assay as above.
Protocol: as §1
With B1 the yeast fitness gain was inactive: 0.00889. For B2, the yeast fitness gain was inactive: 0.12.

What follows are binders tested against SARS-CoV-2 ORF8 in the same assay as above.
Protocol: as §1
In the case of B1, the yeast fitness gain is reported as inactive: 0.0269. In the case of B2, the yeast fitness gain is reported as inactive: 0.00403.

These binders were tested against SARS-CoV-2 ORF9B in the same assay as above.
Protocol: as §1
For B1, the yeast fitness gain was inactive: -0.176. B2 was tested, and the yeast fitness gain was inactive: 0.0263.

The binders below were run against SARS-CoV-2 ORF9Bwu (the 73-codon ORF) in the same assay as above.
Protocol: as §1
With B1 the yeast fitness gain was inactive: -0.017.

What follows are binders tested against SARS-CoV-2 S in the same assay as above.
Protocol: as §1
B1 was tested, and the yeast fitness gain was inactive: 0.0352. In the case of B2, the yeast fitness gain is reported as inactive: 0.0975.

Each binder was assayed against SARS-CoV-2 NSP1 in the same assay as above.
Protocol: as §1
With B2 the yeast fitness gain was inactive: -0.0161.

These binders were tested against SARS-CoV-2 NSP9 in the same assay as above.
Protocol: as §1
With B2 the yeast fitness gain was inactive: -0.0365.
